We go through 59 molecules from PubChem BioAssay AID360 (National Center for Advancing Translational Sciences (NCATS), 2006).

In all, about 48,000 compounds went through this assay and about 550 (1.1%) were called active. About 4% were inconclusive and are not listed. Rule as the data show it: active = potency below about 15 µM; inconclusive = mostly about 16 µM to 33 µM; inactive = weaker than that. The list shows a part of the results.
Potency is read from the fitted curve at half-maximal effect.

Chain of UniProt P04062 (P04062 whole entry, looked up): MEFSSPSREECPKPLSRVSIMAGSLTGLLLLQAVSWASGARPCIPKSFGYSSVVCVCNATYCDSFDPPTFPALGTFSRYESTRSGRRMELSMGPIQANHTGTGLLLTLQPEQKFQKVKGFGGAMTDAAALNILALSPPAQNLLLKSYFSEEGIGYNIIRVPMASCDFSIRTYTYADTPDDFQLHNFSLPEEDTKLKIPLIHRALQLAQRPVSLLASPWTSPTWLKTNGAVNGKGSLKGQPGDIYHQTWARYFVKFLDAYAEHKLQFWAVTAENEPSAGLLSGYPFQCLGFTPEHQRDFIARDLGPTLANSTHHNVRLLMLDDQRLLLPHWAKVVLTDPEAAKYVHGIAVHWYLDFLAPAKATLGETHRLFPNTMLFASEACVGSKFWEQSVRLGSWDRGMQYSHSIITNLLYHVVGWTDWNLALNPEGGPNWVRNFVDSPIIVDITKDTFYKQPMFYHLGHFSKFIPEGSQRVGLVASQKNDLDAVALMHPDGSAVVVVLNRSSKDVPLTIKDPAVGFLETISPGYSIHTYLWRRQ

The target of this test is Lysosomal acid glucosylceramidase (Homo sapiens) (UniProt P04062). Nature of the test: Glucocerebrosidase.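 Also: the screen sought inhibitors.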 The conditions noted are these: purified enzyme, resorufin glucoside fluorescence (screen aimed at inhibitors), 20 min. The method in brief:
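Compounds titrated against 0.2 nM normal enzyme, 30 uM resorufin beta-D-glucopyranoside substrate, citrate/phosphate buffer with taurocholate and tween-20, pH 5.9. Reaction ran 20 min at room temperature; fluorescence (Ex 548/Em 600) gave AC50.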
On to `N#CCCn1c2ccccc2c2nc3ccccc3nc21`, for which the Potency is inactive: > 76.9 µM.

Turning to `CCOC(=O)c1ccc(NC(=O)Cn2nnc(-c3ccc(F)cc3)n2)cc1`, the Potency was inactive: > 76.9 µM. Take `CCOC(=O)c1cc2nc(Nc3ccc(OC)cc3)sc2s1`: the Potency is inactive: > 76.9 µM. As to `CSc1cccc(NC(=O)CSc2ccccc2)c1`, the Potency is inactive: > 76.9 µM. As for `COc1ccccc1-c1c(NC(=O)c2ccco2)n(-c2ccccc2)nc(C)c1=O`, the figure is inactive: > 76.9 µM; as for `N#C/C(Cn1c[n+](NC(=O)Nc2ccccc2)cn1)=N/O`, inactive: > 76.9 µM. Turning to `Cc1nc2cc(C(F)(F)F)ccc2n1C1CCN(C(=O)N2CCOCC2)CC1`, the Potency is inactive: > 76.9 µM.

Consider `CCCCNC(=O)CSc1nc2ccccc2c(=O)n1C1CCCC1`, for which the Potency was inactive: > 76.9 µM. `COc1cc2nc(N3CCNCC3)nc(N)c2cc1OC`: the Potency was inactive: > 76.9 µM. Take `CC(C)Sc1nc2c(c(=O)[nH]c(=O)n2C)n1C`: the Potency was inactive: > 76.9 µM. With `CCOc1cc2c(cc1OCC)C(c1cc(OC)c(O)c(OC)c1)NCC2` (centres undefined), the Potency was inactive: > 76.9 µM. On to `Cc1cccc(NC(=O)C2CC(O)CN2C(=O)OCc2ccccc2)c1` (centres undefined), for which the Potency is inactive: > 76.9 µM. Regarding `Cc1csc(NC(=O)CSc2nncn2C)n1`, the Potency is inactive: > 76.9 µM. As for `CCN1CCN(C(c2cccs2)C(C)NC(=O)c2cccnc2)CC1` (centres undefined), the figure is inactive: > 76.9 µM; as for `O=C(Cn1ccc2ccccc2c1=O)NCCC(=O)N1CCN(c2cccc(C(F)(F)F)c2)CC1`, inactive: > 76.9 µM. In the case of `O=C(Nc1c(C(=O)Nc2cccc(F)c2)oc2ccccc12)c1ccc2c(c1)OCO2`, the Potency is inactive: > 76.9 µM. The same measure for `COc1ccc(NC(C)=O)cc1NC(=O)CSc1nnc(-c2cccnc2)n1C`: inactive: > 76.9 µM; for `CCC(=O)c1ccccc1OCCCN1C(=O)NC(C)(C)C1=O`: inactive: > 76.9 µM; for `Cc1cc(C)c(C(=O)OCCNC(=O)c2cccnc2)cc1C`: inactive: > 76.9 µM. As for `Nc1nonc1-c1noc(CCCCCN2C(=O)c3ccccc3C2=O)n1`, the figure is inactive: > 76.9 µM; as for `CCc1nc2c(n1O)CCc1nonc1-2`, inactive: > 76.9 µM; as for `O=C(COc1ccccc1)Nc1nc(-c2ccc(S(=O)(=O)N3CCOCC3)cc2)cs1`, inactive: > 76.9 µM. The same measure for `Cc1cc2n(n1)C(c1ccc(N(C)C)cc1)Nc1ccccc1-2` (centres undefined): inactive: > 76.9 µM; for `Cn1nc(C(=O)NCC2CCCO2)c2ccccc2c1=O` (centres undefined): inactive: > 76.9 µM; for `CCN(CC)CCCN1C(=O)C(O)=C(C(=O)c2sc(C)nc2C)C1c1ccc(C)o1` (centres undefined): inactive: > 76.9 µM.

As for `Cc1ccc(OCC(O)Cn2c(N3CCOCC3)nc3c2c(=O)[nH]c(=O)n3C)cc1` (centres undefined), the Potency is inactive: > 76.9 µM. On to `Oc1[nH]c2ccccc2c1OCc1ccncc1`, for which the Potency was inactive: > 76.9 µM. On to `CCCn1c(=N)n(CC(O)c2ccco2)c2ccccc21` (centres undefined), for which the Potency was inactive: > 76.9 µM. For `O=C1CC(NCc2ccccc2F)C(=O)N1c1ccccc1` (centres undefined), the Potency was inactive: > 76.9 µM. Turning to `COCCNc1oc(COc2cccc(C)c2)nc1C#N`, the Potency is inactive: > 76.9 µM. For `COc1nc(/C(N)=N/O)nc(N2CCCCC2)n1`, the Potency was inactive: > 76.9 µM. As to `Cc1occc1C(=O)N1CCN(c2ccc(Cl)c(Cl)c2)CC1`, the Potency was inactive: > 76.9 µM. For the molecule `COC(=O)c1ccccc1NC(=O)Cn1cnc2c1c(=O)n(C)c(=O)n2C`, the Potency is inactive: > 76.9 µM. As to `CCCn1c(C(C)NC(=O)c2ccccc2)nc2ccccc21` (centres undefined), the Potency is inactive: > 76.9 µM. Regarding `COc1ccccc1NC(=O)N1CCCC1C(=O)NC12CC3CC(CC(C3)C1)C2` (centres undefined), the Potency is inactive: > 76.9 µM. `COc1ccc(NC(=O)CSc2nnc(-c3ccccc3C)n2C)cc1`: the Potency was inactive: > 76.9 µM. `O=c1c2[nH]c3ccccc3c2ncn1CCN1CCCCC1`: the Potency is inactive: > 76.9 µM. With `Cc1ccc(C(=O)NCC2CCCO2)o1` (centres undefined), the Potency is inactive: > 76.9 µM.

For the molecule `O=C(Cc1cccs1)N1CCCC(c2nc(-c3ccc(S(=O)(=O)N4CCCC4)cc3)no2)C1` (centres undefined), the Potency is inactive: > 76.9 µM. With `COc1ccc(CC(=O)Nc2nc3n(n2)C(c2ccccc2)CC(=O)N3)cc1OC` (centres undefined), the Potency is inactive: > 76.9 µM. For the molecule `CC1CC(=O)C=C(O)C1C(=O)OC(C)(C)C` (centres undefined), the Potency is inactive: > 76.9 µM. Turning to `CS(=O)(=O)N(CCc1ccccc1)CC(=O)NCc1ccc2c(c1)OCO2`, the Potency is inactive: > 76.9 µM.

Turning to `O=C(c1ccncc1)N(Cc1ccccc1)Cc1nc2ccccc2c(=O)[nH]1`, the Potency is inactive: > 76.9 µM. `COc1ccc(N2CCN(c3oc(-c4ccccc4OC)nc3C#N)CC2)cc1`: the Potency is inactive: > 76.9 µM. `CCN(C(=O)CN1CCN(c2ccccc2OC)CC1)c1c(N)n(Cc2ccccc2)c(=O)[nH]c1=O`: the Potency was inactive: > 76.9 µM. The same measure for `CC(=O)NCC(=O)OC(C)C(=O)Nc1ccc(C(C)=O)cc1` (centres undefined): inactive: > 76.9 µM; for `COCc1c(C(=O)OCC(=O)N2c3ccccc3NC(=O)C2(C)C)oc2ccccc12`: inactive: > 76.9 µM; for `O=C(NCCCNC(=O)C(F)(F)C(F)F)C(F)(F)C(F)F`: inactive: > 76.9 µM. Regarding `Cc1cc(C)c(OCC(=O)Nc2nnn(C)n2)c(Br)c1`, the Potency is inactive: > 76.9 µM. For `COc1ccc(NC(=O)N2CCCC2C(=O)Nc2ccc(C)cc2)cc1` (centres undefined), the Potency was inactive: > 76.9 µM. As for `Brc1ccc(-c2nnc3sc(CN4CCc5ccccc5C4)cn23)cc1`, the figure is inactive: > 76.9 µM; as for `C/C(=N\O)C(=O)NCC1CCNCC1`, inactive: > 76.9 µM. On to `Cn1cccc1C(=O)Nc1nccs1`, for which the Potency is inactive: > 76.9 µM. As to `CCOc1ccc(C(C)=O)cc1Cn1nc(C(=O)O)c2ccccc2c1=O`, the Potency was inactive: > 76.9 µM. The same measure for `COC(=O)c1ccc(NS(=O)(=O)c2ccc(OC)cc2)cc1`: inactive: > 76.9 µM; for `CCC1Oc2ccccc2N(CC(=O)NCCCN2CCC(C)CC2)C1=O` (centres undefined): inactive: > 76.9 µM. In the case of `COC(=O)c1nnn(-c2nonc2N)c1CSc1ccc(Cl)cc1`, the Potency is inactive: > 76.9 µM. Turning to `CCn1cc(Br)c(C(=O)N(C)Cc2ccccc2)n1`, the Potency is inactive: > 76.9 µM.

For `COc1ccc(-n2c(C)cc(C(=O)Cn3nnc4ccccc4c3=O)c2C)cc1`, the Potency was inactive: > 76.9 µM.
